In PubChem BioAssay AID624296 (National Center for Advancing Translational Sciences (NCATS), 2012):
Among all 350,000 compounds or so, about 9,900 (2.8%) were called active. The shares of active, inactive and inconclusive entries below differ from those in the screen. The call rests on the fitted dose curve; in most records, active means well fitted activation curve with a large enough effect; inconclusive means small, poorly fitted or top-dose-only effect; inactive means no such curve, though single readings can be large or run the other way. Potencies of inconclusive entries are left out as doubtful fits.

test: A quantitative high throughput screen for small molecules that induce DNA re-replication in MCF 10a normal breast cells.; further: nearly all actives have a fitted effect of over 50% in size; on activity, positive = re-replication: % of control where 0% means no effect; conditions: MCF 10A DNA re-replication, Hoechst nuclear intensity, 48 h; activity, positive = re-replication: at 46.1 µM (top of the series)
Potency means the concentration at half of the fitted maximal effect; tags describe the fitted curve by direction and shape.

| SMILES | Potency | activity, positive = re-replication |
| --- | --- | --- |
| Cc1ccc2c(c1)N(CC(=O)N1CCCCCC1)C(=O)CO2 | inconclusive [activator, full curve, poor fit] | – |
| CCC(C)(C)NC(=O)C(c1ccc(F)cc1)N(Cc1ccco1)C(=O)c1snc(C(N)=O)c1N (stereo not given) | – | inconclusive: 116% [activator] |
| Cc1ccc(S(=O)(=O)NCCC(C)C)cc1[N+](=O)[O-] | inconclusive [activator, partial curve, poor fit] | – |
| COc1ccc(N(C)S(=O)(=O)c2cccc(C(=O)NCc3ccc4c(c3)OCO4)c2)cc1 | inconclusive [activator, partial curve, poor fit] | – |
| N#CCC(=N)N1CCN(c2cccc(Cl)c2)CC1 | inconclusive [activator, partial curve, poor fit] | – |
| Cc1ccc(CNC(=O)CCS(=O)(=O)c2ccc3c(c2)CC(C)N3C(=O)C2CC2)cc1 (stereo not given) | active: 10.3 µM | – |
| CCOc1cc(S(=O)(=O)Nc2ccc(Cl)cn2)ccc1F | inconclusive [activator, partial curve, poor fit] | – |
| CCCN(CCC)C(=O)C1CCN(c2cc(C)nc3c(-c4ccc(OC)c(OC)c4)c(C)nn23)CC1 | – | inactive: 8.23% |
| Cc1noc(C)c1S(=O)(=O)N1CCC(C(N)=O)CC1 | – | inactive: -2.88% |
| C=CCNc1nc(NCc2ccccc2)c(C#N)c2c1CN(C)CC2 | inconclusive [activator, partial curve, poor fit] | – |
| CCCNC(=O)CCn1cc(-c2ccc(OC)cc2)nc1CCN | inconclusive [activator, partial curve, poor fit] | – |
| O=C(NCCCSc1ccccc1)c1ccc(=O)[nH]c1 | – | inactive: 4.08% |
| Cc1c(C(=O)NCc2ccoc2)oc2ccc3c(c12)C(=O)CC(C)(C)O3 | inconclusive [activator, partial curve, poor fit] | – |
| CCC(=O)Nc1ccc2c(c1)nc(CN1CCN(C(C)=O)CC1)n2C | inconclusive [activator, single point] | – |
| CC1=CC2=NC(=O)/C(=C\c3cccn3CCOc3cccc(C)c3)C(=N)N2O1 | inconclusive [activator, single point] | – |
| CC(=O)Nc1ccc(S(=O)(=O)NCc2nc(-c3cccc(C)c3)no2)cc1 | inconclusive [activator, single point] | – |
| O=C(Nc1ccccc1C(F)(F)F)c1cc(-c2ccc(O)cc2)on1 | inconclusive [activator, partial curve] | – |
| CSc1nc(C(=O)N2CCCC(Nc3ccc(C)c(C)c3)C2)cs1 (stereo not given) | – | inactive: -20.3% |
| N#Cc1c(-c2ccccc2)nc(-c2cccnc2)[nH]c1=O | inconclusive [activator, full curve, poor fit] | – |
| CCOC(=O)C1CCN(c2ncnc3c2nnn3Cc2ccccc2Cl)CC1 | inconclusive [activator, partial curve, poor fit] | – |
| CCN1CCN(C(=S)c2ccc(SC)cc2)CC1 | – | inactive: -178% [at 0.0737 µM] |
| Cc1c(C(=O)N(C)CCOc2ccccc2)oc2c(Cl)cccc12 | inconclusive [activator, single point] | – |

| SMILES | Potency | activity, positive = re-replication |
| --- | --- | --- |
| Cc1cc(C)n(CC(O)COc2ccc3ccccc3c2)n1 (stereo not given) | – | inactive: -6.48% |
| Cc1cccc(-n2c(C)nc3c(cnn3-c3ccc(F)cc3)c2=O)c1 | – | inactive: 0.437% |
| Cc1ccc([C@@H]2[C@@H]3C(=O)N(c4ccccc4)C(=O)[C@@H]3[C@]3(C)C(=O)N(Cc4ccccn4)CC(=O)N23)o1 | inconclusive [activator, single point] | – |
| O=C1c2ccccc2C(=O)N1CCCCc1cn(C[C@H]2CC[C@@H]([C@@H]3CC[C@H](Cn4cc(CCCCN5C(=O)c6ccccc6C5=O)nn4)O3)O2)nn1 | inconclusive [activator, full curve] | – |
| COCC(=O)Nc1ccc2c(c1)OCC(=O)N2Cc1ccccc1F | – | inactive: 4.11% |
| Cc1cc(C)c(S(=O)(=O)N2CCN(C(=O)CN3C(=O)NC4(CCCC4)C3=O)CC2)c(C)c1 | inconclusive [activator, single point] | – |
| CC(C)(C)C(=O)Nc1cc(NC(=O)C(C)(C)C)cc(C(=O)Nc2c[nH]c(=O)[nH]c2=O)c1 | inconclusive [activator, full curve, poor fit] | – |
| CCCNC(=O)C12CCC(C)(c3nc4cc(C)c(C)cc4nc31)C2(C)C (stereo not given) | inconclusive [activator, single point] | – |
| COc1ccccc1NC(=O)Cn1nnc(-c2ccccc2NC(=O)c2cccs2)n1 | inconclusive [activator, single point] | – |
| NS(=O)(=O)c1ccc(CCN2C(=O)/C(=C\c3ccc(Cl)cc3)SC2=S)cc1 | active: 10.3 µM | – |
| COc1ccc(C(CNC(=O)c2ccc(S(=O)(=O)Nc3ccc(F)cc3)cc2)N(C)C)cc1 (stereo not given) | – | inactive: -2.23% |
| CC(C)C[C@H](NC(=O)c1nc[nH]c1C(=O)N(C)Cc1ccccc1)C(=O)OC(C)(C)C | – | inactive: 0.388% |
| CN(C)c1cc[n+](CC(=O)Nc2ccc(Cl)c([N+](=O)[O-])c2)cc1 | inconclusive [activator, full curve, poor fit] | – |
| Cc1ccc(C(=O)NNC(=O)C2CCN(c3nccc(C)n3)CC2)cc1 | – | inactive: 1.92% |
| COCc1nc(-c2ccc(-c3ccc(C)cc3)nc2OC)no1 | inconclusive [activator, single point] | – |
| O=C(CCCCN1CCCCC1)c1ccc2c(c1)Cc1ccccc1-2 | – | inactive: -2.97% |
| c1ccc(-n2c(-c3ccncc3)nnc2-c2ccco2)cc1 | – | inactive: 9.87% |
| O=C(/C=C/c1ccccc1Cl)N(Cc1ccccc1)C1CCS(=O)(=O)C1 (stereo not given) | inconclusive [activator, full curve, poor fit] | – |
| O=C(Nc1cscc1S(=O)(=O)c1ccc(Cl)cc1)c1ccccc1Cl | inconclusive [activator, single point] | – |
| CC1CCCCN1C(=O)COC(=O)/C=C/c1ccc2ccccc2n1 (stereo not given) | inconclusive [activator, single point] | – |
| Cc1c(O)c2c3c(cccc3c1O)C(=O)N(c1ccccc1)C2=O | inconclusive [activator, single point] | – |
| Cc1cc(NC(=O)c2ccc3nccnc3c2)ccc1Br | inconclusive [activator, single point] | – |

| SMILES | Potency | activity, positive = re-replication |
| --- | --- | --- |
| Clc1ccc(-c2ccc(-c3nn4c(-c5ccco5)nnc4s3)o2)cc1 | inconclusive [activator, single point] | – |
| Cc1ccc2nc(-c3ccccc3NC(=O)CCC(=O)O)c(=O)[nH]c2c1 | inconclusive [activator, single point] | – |
| CCC(C)(C)NC(=O)C(c1cccc(OC)c1OC)N(C(=O)CCC(=O)Nc1cc(C)on1)c1ccc2c(c1)OCCO2 (stereo not given) | inconclusive [activator, single point] | – |
| CCOc1ncccc1C(=O)OCC(=O)Nc1c(C)cccc1C | inconclusive [activator, partial curve, poor fit] | – |
| COc1ccccc1N(C)S(=O)(=O)c1ccc(C(=O)Nc2cc(OC)c(OC)c(OC)c2)cc1 | inconclusive [activator, single point] | – |
| CCOC(=O)Cn1nnnc1C(C(C)C)N(Cc1cccs1)Cc1cc2cc(C)ccc2[nH]c1=O (stereo not given) | inconclusive [activator, single point] | – |
| Clc1ccccc1-c1nnc2sc(CCc3ccccc3)nn12 | – | inactive: 29.3% |
| Cc1ccc(S(=O)(=O)N/N=C2/CC(c3ccccc3)Oc3ccccc32)cc1 (stereo not given) | inconclusive [activator, partial curve, poor fit] | – |
| O=C(c1ccccc1)c1ccc(OCCCN2CCCC2)cc1 | inconclusive [activator, partial curve] | – |
| O=C(Nc1ccc([N+](=O)[O-])cc1)Nc1cnccn1 | inconclusive [activator, partial curve, poor fit] | – |
| CCN(CC)C(=O)c1sc2nc(-c3ccccc3)ccc2c1N | active: 23.1 µM | – |
| CN(Cc1ccccc1)C(=O)c1ccc(NC(=O)Cc2ccc(NC(=O)C3CCCN(C(=O)CCc4ccccc4)C3)cc2)cc1 (stereo not given) | inconclusive [activator, partial curve, poor fit] | – |
| COc1ccc(CCNC(=O)CNCCc2ccc(F)cc2)cc1 | – | inactive: 1.14% |
| NC(=O)c1ccc(-n2c(CCC(=O)O)ccc2-c2cccs2)cc1 | inconclusive [activator, single point] | – |
| CCCn1c(C(=O)OC)cc2c1ccn2-c1ccc(F)cc1 | active: 23.1 µM | – |
| CCOC(=O)[C@H]1[C@H]2COc3ccc(Cl)cc3[C@@H]2N2C(=O)CNC(=O)[C@@]12C | inconclusive [activator, full curve, poor fit] | – |
| COc1ccc(/C=C/c2nc(-c3ccccc3O)n[nH]2)cc1 | inconclusive [activator, partial curve, poor fit] | – |
| COc1ccc(N2C(=O)/C(=C\c3ccco3)N=C2SCC(=O)NC(C)C)cc1Cl | – | inactive: 3.44% |
| Cc1[nH]c(C(=O)N/N=C/c2ccc(N(C)C)cc2)c(C)c1C(=O)N/N=C/c1ccc(N(C)C)cc1 | inconclusive [activator, single point] | – |
| CCN(CC)c1ccc(-c2nn3c(-c4cccnc4)nnc3s2)cc1 | active: 5.17 µM | – |
| CCOC(=O)c1c(CSc2ccccc2)oc2ccc(O)cc12 | active: 18.4 µM | – |
